Measurements published in publication PMC4336329 (PLoS ONE, 2015).
Out of some 310,000 compounds screened, about 2,200 (0.71%) showed an effect of 50% or more. Effects have a minus sign here. The list shows a part of the results.

target: human ether-à-go-go-related gene (hERG) potassium channel (human, UniProt Q12809); assay: primary screen, population patch clamp on CHO cells stably expressing hERG
Sequence (Q12809 whole entry, looked up): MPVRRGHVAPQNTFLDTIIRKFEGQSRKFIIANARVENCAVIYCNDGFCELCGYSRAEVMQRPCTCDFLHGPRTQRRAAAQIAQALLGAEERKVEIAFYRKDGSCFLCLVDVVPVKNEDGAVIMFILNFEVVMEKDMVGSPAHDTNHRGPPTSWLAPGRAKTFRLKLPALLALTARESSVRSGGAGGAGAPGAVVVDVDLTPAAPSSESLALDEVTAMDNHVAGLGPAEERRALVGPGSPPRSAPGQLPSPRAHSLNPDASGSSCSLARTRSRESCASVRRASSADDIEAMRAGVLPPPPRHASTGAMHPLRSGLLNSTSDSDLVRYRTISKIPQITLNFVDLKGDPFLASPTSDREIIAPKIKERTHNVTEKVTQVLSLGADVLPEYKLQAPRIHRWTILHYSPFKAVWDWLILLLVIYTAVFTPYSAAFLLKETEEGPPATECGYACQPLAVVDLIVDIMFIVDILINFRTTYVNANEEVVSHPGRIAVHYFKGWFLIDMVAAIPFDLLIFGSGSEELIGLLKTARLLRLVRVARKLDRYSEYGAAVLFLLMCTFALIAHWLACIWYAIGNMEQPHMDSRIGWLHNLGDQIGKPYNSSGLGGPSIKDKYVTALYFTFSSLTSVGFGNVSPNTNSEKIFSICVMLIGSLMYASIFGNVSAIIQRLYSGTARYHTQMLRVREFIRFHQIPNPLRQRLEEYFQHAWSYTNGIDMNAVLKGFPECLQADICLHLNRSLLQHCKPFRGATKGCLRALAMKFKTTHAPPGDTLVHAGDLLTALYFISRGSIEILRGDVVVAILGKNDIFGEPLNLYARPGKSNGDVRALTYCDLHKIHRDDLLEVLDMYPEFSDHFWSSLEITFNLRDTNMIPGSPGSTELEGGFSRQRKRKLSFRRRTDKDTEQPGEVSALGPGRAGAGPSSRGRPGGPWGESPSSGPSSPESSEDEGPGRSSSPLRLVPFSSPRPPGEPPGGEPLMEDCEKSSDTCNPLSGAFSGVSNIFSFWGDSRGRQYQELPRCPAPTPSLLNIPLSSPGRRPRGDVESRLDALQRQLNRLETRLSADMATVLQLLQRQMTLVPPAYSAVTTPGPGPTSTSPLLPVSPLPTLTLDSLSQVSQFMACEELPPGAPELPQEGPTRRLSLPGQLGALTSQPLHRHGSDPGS

SMILES	hERG current change (%, negative = inhibition) at 1uM [%]
CSc1nsc(SCC(=O)Nc2ccc(F)cc2)n1	8.96
Cc1cc(/C=C2/C(=N)N3C(=NC2=O)SN=C3S(C)(=O)=O)c(C)n1-c1ccccc1	9.17
CC(=O)NCCc1ccc(S(=O)(=O)N2CCCC2)cc1	-3.83
C=CCNc1nc2ccccc2nc1NS(=O)(=O)c1ccc(F)cc1	7.86
COc1cc(C(=O)NNC(=O)c2ccccc2Br)ccc1OCC(=O)N1CCOCC1	22.2
COc1cccc(-c2cc(C(=O)N/N=C/c3cccc(OC)c3OC)c3ccccc3n2)c1	11
Cc1cc(C(=O)NC2CCCCC2)on1	10.2
Brc1cccc(CNc2nc3ccccc3n2CCN2CCOCC2)c1	-56.7
COc1ccc(CNC(=O)CCCCCNc2nc(=S)[nH]c3ccccc23)cc1	15.8
Cc1ccccc1NC(=O)N1CCN(C/C=C/c2ccccc2)CC1	11
CCc1nc2ccccc2c(C(=O)OCC(=O)NCCCN2CCCC2=O)c1C	14
O=C(CSc1nnc(-c2ccccc2F)n1C1CC1)Nc1ccc2[nH]c(=O)[nH]c2c1	13
COc1ccc(C(=O)COC(=O)CSCc2c(C)noc2C)cc1OC	16.2
Nc1ccc2nc(-c3ccc(N)c(Cl)c3)[nH]c2c1	6.55
Cc1cccc2cc(CN(CCN(C)C)C(=S)NCc3ccco3)c(=O)[nH]c12	4.45
O=C(NCCc1ccccc1)c1ccccc1NC(=O)C1CCCO1 (stereo not shown)	20.1
Cc1ccc(/C=C2\SC(=S)N(CCC(=O)NNS(=O)(=O)c3ccc(C)cc3)C2=O)cc1	23.7
COc1cc(C(=S)N2CCOCC2)ccc1OS(=O)(=O)c1ccc(Cl)cc1	6.75
CC(C)CCNc1nc(N2CCCC2)c2c(c1C#N)CCN(C)C2	0.441
COc1ccc(CN2C(=O)CC(=O)NC2=O)cc1	10.8
NNC(=O)c1nnn(-c2nonc2N)c1-c1cccs1	-10.6
COc1ccc(OC)c(CCNC(=O)CN2C(=O)CC(C)(C)S(=O)(=O)c3ccccc32)c1	10.7

SMILES	hERG current change (%, negative = inhibition) at 1uM [%]
O=C(Nc1cccc2ncccc12)c1ccc([N+](=O)[O-])o1	10.6
CCN(CC)S(=O)(=O)c1ccc(NC(=O)COC(=O)c2ccc(-n3nc(C)cc3C)cc2)cc1	-6.12
Cc1ccc(S(=O)(=O)N2CCCCC2)cc1NC(=O)C1CC(=O)N(c2ccc3c(c2)OCCO3)C1 (stereo not shown)	3.16
CC(=O)NC1(C(F)(F)F)NC(=O)N(CC(C)C)C1=O (stereo not shown)	0.652
CC1(CCc2ccccc2)NC(=O)N(CC(=O)Nc2ccc3c(c2)OCCO3)C1=O (stereo not shown)	6.33
CCOc1cc(CNc2nn[nH]n2)ccc1OCC(=O)NC(C)(C)C	12
COc1ccccc1CNC(=O)CNC(=O)N1CC(=O)Nc2ccccc21	10.6
COc1cccc(-n2c(COc3ccc(C)cc3)nnc2SCC(=O)O)c1	6.98
COc1ccc(C(=O)Oc2c(OC)cc(C(=S)N3CCOCC3)cc2OC)cc1OC	15.8
c1ccc2c(c1)NC1(CCCC1)n1c-2nc2ccccc21	9.03
COCCn1c(C)cc(C(=O)CSc2nc(C)c(C)c(C)n2)c1C	9.29
CS(=O)(=O)N(Cc1ccc(Cl)cc1)c1ccc(C(=O)N2CCN(c3ccccc3)CC2)cc1	3.27
Clc1ncn(C23CC4CC(CC(C4)C2)C3)n1	9.07
O=C(O)CCC(=O)Nc1nc(-c2ccccc2)cs1	12.8
O=c1cc(-c2ccccc2)nc2nc(-c3ccco3)[nH]n12	7.53
Cc1cc(NCCO)nc(N2CCOCC2)n1	15.6
CCCc1cc(-c2n[nH]c(=S)n2CC(C)C)cs1	14.4
Br.CC1CN(CC(=O)c2ccccc2Cl)CC(C)O1 (stereo not shown)	9.69
CN(c1ccccc1)S(=O)(=O)c1cccc(NC(=O)COC(=O)C2CCCCC2)c1	6.17
COc1ccc(/C=N/NC(=O)CN(Cc2ccccc2)S(=O)(=O)c2ccc3c(c2)OCCO3)cc1	10.5
Cc1cccc(C)c1NC(=O)CS(=O)CC(=O)NC1CCCc2ccccc21 (stereo not shown)	7.5
Cc1[nH]c2ccccc2c1C(=O)CSc1nnc(C2CC2)o1	15.5

SMILES	hERG current change (%, negative = inhibition) at 1uM [%]
COCCNC(=S)NNC(=O)c1cc(-c2cccnc2)nc2ccccc12	18.7
C=CCOc1ccccc1CNCCCN1CCOCC1.Cl	37
Cc1cc(C)c(NC(=O)C2C3/C=C\CCCCC32)c(C)c1 (stereo not shown)	7.77
O=C(NC1CCC(O)CC1)C1CCN(S(=O)(=O)c2c(Cl)cccc2Cl)CC1 (stereo not shown)	0.544
CCC[N+](CC#Cc1ccccc1)(CCC)CC(=O)OCC	10.5
Cc1ccccc1/C=N\NC(=O)c1ccc(Cn2cccn2)o1	2.53
COc1cc(C(=O)N(Cc2ccc(F)cc2)C2CCS(=O)(=O)C2)cc(OC)c1OC (stereo not shown)	11.2
CCOC1OC(=O)C(Cl)=C1Nc1ccccc1C (stereo not shown)	3.08
O=C(Nc1ccccc1)N1CCN(CCc2ccccc2)CC1	5.19
Cc1ccc(OCCCCN2CCCCC2)cc1	9.11
CCn1ncc(CNC(=O)C2(C)CC2(Br)Br)c1C (stereo not shown)	22
COc1ccc(NC(=O)N[C@@H](CCSC)C(=O)O)cc1OC	7.81
COc1ccc(OCCCn2cccc2/C=C2/C(=N)N3OC(C)=CC3=NC2=O)cc1	6.39
CC(C)(C)c1cc(CCC(=O)N2CCC2)cc(C(C)(C)C)c1O	8.57
CCN1C(=O)C(CC(=O)Nc2ccc(F)cc2)N(CCCN2CCN(c3ccc(F)cc3)CC2)C1=S (stereo not shown)	0.806
COCCn1nnnc1C(c1ccccc1OC)N1CCc2ccccc2C1 (stereo not shown)	4.3
Cc1c(NC(=S)NC(=O)c2ccc(Br)o2)c(=O)n(-c2ccccc2)n1C	13.2
COc1nc(C)cc(C)c1S(=O)(=O)c1ccccc1C	15.1
CCOC(=O)c1ccc(N2C(=O)[C@@H](c3ccccc3)[C@H]2c2ccccc2)cc1	8.55
COc1ccc(CC(=O)Oc2cc(C)[nH]c(=O)c2[N+](=O)[O-])cc1	4.19
COc1ccccc1NC(=O)N1CCN(c2ncccn2)CC1	1.94
Cc1ccc(N2CCN(C(=O)c3ccccc3F)CC2)c(C)c1	2.44

SMILES	hERG current change (%, negative = inhibition) at 1uM [%]
COc1ccc(C2C(C(=O)c3cccs3)=C(O)C(=O)N2c2nnc(C)s2)cc1OC (stereo not shown)	7.85
CCc1c(C)c(C#N)c2nc3ccccc3n2c1NCC1CCCO1 (stereo not shown)	-3.59
COC(CNC(=O)CCc1c(C)nc2c(-c3ccc(F)cc3)c(C)nn2c1C)OC	14.4
O=C(COC(=O)/C=C/c1ccc(C(F)(F)F)cc1)NCC1CCCCC1	8.62
CCOc1cc(NC(=O)c2ccccn2)c(OCC)cc1NC(=O)c1ccccc1	16.8
CCOc1cccc(C2/C(=C(\O)c3ccc4c(c3)OCCO4)C(=O)C(=O)N2Cc2ccncc2)c1 (stereo not shown)	8.15
NS(=O)(=O)c1ccc(CCN=C(NS(=O)(=O)c2cccs2)c2ccccc2)cc1	7.79
CCC(C(=O)NC(C)CCc1ccccc1)n1nc(C)n2c(cc3occc32)c1=O (stereo not shown)	8.19
O=C(CSc1ncn[nH]1)Nc1nc(-c2ccccc2)ns1	-7.37
Cc1cc(C)c2c(N)c(C(=O)NN3CC(=O)N(c4ccccc4)CC3=O)sc2n1	7.75
COc1ccc(C(=O)Nc2ccccc2NC(=O)c2ccc(OC)cc2)cc1	1.94
C=C1SC(=Nc2ccccc2Cl)N(C(=O)c2sc3ccccc3c2Cl)C12CCCCC2	10.9
COCCNC(=S)N(CCc1c(C)[nH]c2ccc(F)cc12)Cc1ccco1	16.6
Cc1cccc(N2CCN(C(=O)c3ccc(Cl)c(S(=O)(=O)NCc4ccco4)c3)CC2)c1C	12.6
CC(OC(=O)CN(C)S(=O)(=O)c1ccc(Cl)cc1)C(=O)Nc1ncc(Cl)cc1Cl (stereo not shown)	-13.3
CCC(Sc1nc2ccccc2c(=O)n1CC1CCCO1)C(=O)NCc1cccnc1 (stereo not shown)	3.14
O=C(NCCC1CCCCN1S(=O)(=O)c1ccccc1)C(=O)NCc1ccccc1F (stereo not shown)	10.4
Cc1ccc(NC(=O)CCCCCN2C(=O)[C@@H]3Cc4ccccc4CN3C2=O)cc1	6.46
Cc1nc([N+](=O)[O-])c(N2CCOCC2)n1Cc1ccccc1	12.8
Cc1ccccc1OCc1nnc(SC(C)C(=O)O)n1Cc1ccccc1 (stereo not shown)	10.9
C=CCNC(=O)CC1C(=O)NCCN1Cc1ccc(-c2ccccc2)cc1 (stereo not shown)	3.44
CN(Cc1cccs1)C(=O)Cc1csc(-c2ccccc2)n1	5.57
